# Measured values: article PMC4336329 (PLoS ONE, 2015)
# Screen size: about 310,000 compounds; about 2,200 (0.71%) showed an effect of 50% or more. The effect is printed as a negative number. The list shows a part of the results.
# Molecular target: human ether-à-go-go-related gene (hERG) potassium channel (human, UniProt Q12809)
# Assay: primary screen, population patch clamp on CHO cells stably expressing hERG
# Sequence of human ether-à-go-go-related gene (hERG) potassium channel (Q12809 whole entry, looked up): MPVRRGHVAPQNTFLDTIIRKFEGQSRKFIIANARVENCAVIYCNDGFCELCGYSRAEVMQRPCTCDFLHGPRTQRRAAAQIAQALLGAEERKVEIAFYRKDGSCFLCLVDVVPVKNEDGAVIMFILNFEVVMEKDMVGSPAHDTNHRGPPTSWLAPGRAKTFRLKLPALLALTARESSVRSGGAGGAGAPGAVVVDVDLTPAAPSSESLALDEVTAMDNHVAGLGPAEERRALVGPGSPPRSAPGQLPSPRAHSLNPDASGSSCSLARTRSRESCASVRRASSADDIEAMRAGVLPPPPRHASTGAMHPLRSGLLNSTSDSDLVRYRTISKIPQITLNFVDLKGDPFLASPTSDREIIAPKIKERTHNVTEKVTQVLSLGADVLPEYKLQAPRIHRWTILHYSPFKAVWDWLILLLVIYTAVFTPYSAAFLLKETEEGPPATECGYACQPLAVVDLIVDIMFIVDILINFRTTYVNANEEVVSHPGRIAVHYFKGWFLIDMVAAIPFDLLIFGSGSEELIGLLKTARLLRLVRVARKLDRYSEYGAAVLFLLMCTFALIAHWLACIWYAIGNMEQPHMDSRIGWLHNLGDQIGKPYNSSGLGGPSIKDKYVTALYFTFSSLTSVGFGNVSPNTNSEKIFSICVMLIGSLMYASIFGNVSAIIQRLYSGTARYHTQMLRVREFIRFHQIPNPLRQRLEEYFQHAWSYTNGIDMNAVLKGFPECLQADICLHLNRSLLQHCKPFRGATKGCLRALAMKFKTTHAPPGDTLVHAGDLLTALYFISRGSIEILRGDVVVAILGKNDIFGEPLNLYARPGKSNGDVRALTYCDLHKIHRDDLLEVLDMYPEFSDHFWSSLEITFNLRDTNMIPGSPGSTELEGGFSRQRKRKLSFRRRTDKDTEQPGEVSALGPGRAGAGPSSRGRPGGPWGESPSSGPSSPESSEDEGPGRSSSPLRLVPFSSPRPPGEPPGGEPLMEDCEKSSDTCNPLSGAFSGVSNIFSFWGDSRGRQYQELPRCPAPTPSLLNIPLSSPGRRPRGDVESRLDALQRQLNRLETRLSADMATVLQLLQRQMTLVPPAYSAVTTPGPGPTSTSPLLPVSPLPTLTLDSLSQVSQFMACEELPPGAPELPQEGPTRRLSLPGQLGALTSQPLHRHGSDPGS
row,SMILES,"hERG current change (%, negative = inhibition) at 1uM [%]"
1,N#Cc1ccsc1NC(=O)CSc1nnc(-c2ccccc2)o1,8.91
2,Cc1cc2c3c(c1)C1(C(=O)N3C(C)(C)CC2C)C(C#N)=C(N)Oc2cc(O)ccc21 (stereo not drawn),16.1
3,Cc1ccc(O)c(N=CC2=C(O)c3ccccc3C2=O)c1,9.83
4,COCCCNC(=O)c1ccc(CS(=O)(=O)c2ccc(OC)cc2)o1,5.2
5,CCOc1cc(C(=S)N2CCOCC2)ccc1OC(=O)c1ccccc1,13.5
6,CC(C)c1ccc(C(N)=S)cc1,7.86
7,O=C(CN1CCCN(Cc2ccc(F)cc2Cl)C1=O)NC1CCCCCC1,-6.76
8,CC(=O)NC(=S)Nc1ccc(S(=O)(=O)N2CCOCC2)cc1,11.7
9,CCOc1cccc2cc(-c3cn4cc(C)ccc4n3)c(=O)oc12,14.1
10,CCN(Cc1ccc2c(c1)OCCO2)C(=O)CN1C(=O)NC2(CCc3ccccc32)C1=O (stereo not drawn),14.3
11,CC1(C)CC(=O)C2=C(C1)Nc1[nH]c(=S)[nH]c(=O)c1C2c1ccccc1 (stereo not drawn),16.1
12,CSc1ccccc1NC(=O)c1onc(C)c1Cl,10.4
13,O=C(NCc1ccco1)c1nn2cccnc2c1Cl,5.52
14,COc1ccc(C(CNC(=O)Cc2ccccc2F)N2CCCCC2)cc1 (stereo not drawn),-2.77
15,Cc1ccc(C)n1N1C(=O)/C(=C\c2ccc(Cl)cc2)SC1=S,15.8
16,O=C(Cc1ccccc1)Nn1c(-c2ccccc2)nc2ccccc2c1=O,-1.2
17,O=C1c2ccccc2-c2cccc(NS(=O)(=O)c3ccc(C(F)(F)F)cc3)c21,20.7
18,CC(C)CC1(C)NC(=O)NC1=O (stereo not drawn),-20.6
19,CCOC(=O)CSc1nnc(CNC(=O)c2ccc(S(=O)(=O)N3CCCCC3)cc2)n1C,7.73

row,SMILES,"hERG current change (%, negative = inhibition) at 1uM [%]"
1,CCOC(=O)C1=C(COC(=O)c2ccc3ccccc3c2O)NC(=O)NC1C (stereo not drawn),-3.87
2,Cc1ccc2nc(-c3ccccn3)oc2c1,12.6
3,COc1cccc(NCc2nnc(SCC(=O)N(C)C3CCS(=O)(=O)C3)n2C2CCCCC2)c1 (stereo not drawn),8.65
4,C/C(=N\NC(=O)CNC(=O)c1ccncc1)c1ccc(C)cc1,12.8
5,O=C(O)c1ccc(Cn2c(=S)[nH]c3cc(Cl)ccc3c2=O)cc1,15.3
6,FC(F)(F)c1ccccc1NC(=S)N1CCN(c2ncccn2)CC1,11.5
7,CCOC(=O)[C@@H]1[C@H]2COc3ccc(Br)cc3[C@@H]2N2C(=O)N(c3ccc(C(F)(F)F)cc3)C(=O)[C@]12C,11.8
8,COc1cc(OC)cc(C(=O)OC(C)C(=O)NC2CCCc3ccccc32)c1 (stereo not drawn),13.5
9,O=C(Nc1ccnn1C1CCN(Cc2c(F)cccc2Cl)CC1)C1CCCC1,2.88
10,CCOC(=O)c1sc(-c2ccc(Cl)cc2Cl)nc1O,16.6
11,O=C(CSc1nnc2ccc(-c3cccnc3)nn12)Nc1ccc(F)cc1F,-36.3
12,c1ccc(-n2c(SCC3CCCCO3)nnc2-c2cccs2)cc1 (stereo not drawn),10.8
13,Cc1ccc(Cn2cccc(NC(=O)NCc3ccccc3)c2=O)cc1,-1.17
14,COc1cccc(-c2cc(C(=O)NCCCn3ccnc3)no2)c1,6.26
15,CC(C)(C)NS(=O)(=O)c1cccc2nsnc12,20.2
16,CCCC(=O)Oc1ccc(N(C(=O)CCC)S(=O)(=O)c2cccs2)cc1,8.95
17,Cc1cc(-c2ccc(N3C(=O)CCC3=O)c(C)c2)ccc1N1C(=O)CCC1=O,13.3
18,Cc1nc(-c2ccccc2)sc1C1(C)CC(c2ccc(C#N)cc2)=NO1 (stereo not drawn),8.44
19,CC(NC(=O)NC1CCCCC1)C(c1cccs1)N1CCN(Cc2ccccc2)CC1 (stereo not drawn),-7.01

row,SMILES,"hERG current change (%, negative = inhibition) at 1uM [%]"
1,O=C(NCC1CCN(S(=O)(=O)c2ccccc2)CC1)Nc1ccc(F)cc1F,5.22
2,CCc1nnc(NS(=O)(=O)c2ccc(N/C=C\C(=O)c3ccc(F)cc3)cc2)s1,26
3,Cc1ccc(CC(CC(=O)O)C(=O)Nc2ccc(Cl)cc2)cc1 (stereo not drawn),7.67
4,COc1ccc(C(=O)c2c(-c3ccc(OC)cc3)oc3ccccc23)cc1,9.63
5,O=C(NC1CCCc2ccccc21)c1cc(F)cc(F)c1 (stereo not drawn),15.2
6,N#C/C(=C\c1ccc(OCc2ccc(C(=O)O)cc2)cc1)C(=O)N1CCOCC1,-9.21
7,COc1ccc(/C(O)=C2\C(=O)C(=O)N(CC3CCCO3)C2c2cc(OC)ccc2OC)cc1 (stereo not drawn),2.86
8,CCCn1c(=O)c(C(=O)N/N=C/c2ccccc2F)c(O)c2ccccc21,12.1
9,Cc1ccc(NC(=O)c2ccc(S(=O)(=O)C(F)F)cc2)c(C)c1,-4.11
10,COc1ccc2cc(S(=O)(=O)N3CCCCCC3)ccc2c1,11
11,Cc1ccc(CN2CN(S(=O)(=O)c3cccs3)c3nc4ccccc4nc32)cc1,9.27
12,Cc1csc(SCC(=O)Nc2nncs2)n1,4.89
13,O=P(Cc1ccncc1)(c1ccccc1)c1ccccc1,3.46
14,Cc1cc(C)n(S(=O)(=O)c2ccc(C)c(C)c2)n1,9.86
15,C=CCNC(=S)Nc1ccc(Cl)cc1F,19.2
16,COc1ccc(CCn2c(C)cc(C(=O)COC(=O)c3cnc(C)cn3)c2C)cc1,-5.52
17,COc1ccc(NC(=O)c2ccco2)cc1S(=O)(=O)N1CCCCC1,-22.3
18,CCC1(O)CC(C(=O)OC)=NN1C(=O)c1ccccc1 (stereo not drawn),11.5
19,O=C(COc1ccc(/C=N/NC(=O)c2ccc(O)cc2)cc1)Nc1ccc([N+](=O)[O-])cc1,9.71
